Assay results reported in the supplement of paper PMC7726561.
Whole data set: some 1,100 sequences, median “thermal melting temperature (Tm) of peptide-HLA complex” near 58, cut for the lowest 2% near 42. The list shows a part of the results.

Target: HLA-A*02:01
Assay: thermal melting temperature (Tm) of peptide-HLA complex; higher = more thermostable pHLA complex
Settings: C1R-A*02:01
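Note: cell lysates heated 10 min at 37–73 °C, remaining pHLA pulled down with pan-class I antibody, peptides quantified by DIA-MS versus 37 °C, Tm where half the complex is lost.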

| Sequence | thermal melting temperature [°C] |
| --- | --- |
| VLLDHLSLA | 56.9 |
| LLIDDKGTIKL | 60.9 |
| KLADDVDLEQV | 57.4 |
| HILDFSPSL | 57 |
| FQVDEIYTV | 56 |
| FLAEEGFYKF | 44 |
| TLLGNIHAV | 59.5 |
| FMTTNVPNV | 59.6 |
| FMDPQKMPYL | 52.9 |
| FLPDPSALQNL | 55 |
| KLVELPYTV | 61.1 |
| SLIRSVVAL | 60.6 |
| VIIKGLEEITV | 47.1 |
| FLDITNPKA | 58.3 |
| KLLDISELDMV | 56.9 |
| ILDSRGNPTV | 59.4 |
| ALAAALAHI | 61.1 |
| ALLDSAHLL | 61.1 |
| QQLDSKFLEQV | 54.3 |

| Sequence | thermal melting temperature [°C] |
| --- | --- |
| VLYENALKL | 59.3 |
| NLLDDRGMTAL | 52.3 |
| ALLKDSIVQL | 40.9 |
| ILSKDGVLYV | 59.8 |
| ALILEPSLYTV | 56.2 |
| LLYDQPLQV | 63.3 |
| NMYGKVVTV | 58.1 |
| QLAPVFQRV | 54.3 |
| GLAKLIADV | 60.9 |
| RLLEYTPTA | 61.1 |
| LLSDVRFVL | 54.8 |
| RIADGLPVAV | 41 |
| TLDEYTTRV | 52.2 |
| AMNISVPQV | 58.1 |
| ALWVSQPPEI | 59.2 |
| VLYPASPHGV | 62.3 |
| VLPVPPLSV | 50.3 |
| LILDPIFKV | 50.4 |
| VLYGGLLEHL | 61.4 |

| Sequence | thermal melting temperature [°C] |
| --- | --- |
| FLADIVQKL | 60.2 |
| SLLTSPPKA | 50.6 |
| AIVGAVRLLSV | 58.3 |
| VLLGEVNIRL | 55.2 |
| ALFPHLLQPVL | 62 |
| ALAEMPDSAAA | 52.6 |
| KLIDYIYTA | 63 |
| FAPPQPVAA | 54.7 |
| FLETNVPLL | 49.9 |
| FLLEQEKTQAL | 59 |
| FLSSVIQNL | 58.3 |
| SLIRNLEQL | 51.2 |
| ILAELPEDFKA | 63.2 |
| KILEDVVGV | 61.3 |
| AMWEHPITA | 61.4 |
| TLTSKLYSL | 55.2 |
| LLIENVASL | 56.8 |
| VTTDIQVKV | 47.3 |
